Assay results published in publication PMC8245568, “Xyloglucan processing machinery in Xanthomonas pathogens and its role in the transcriptional activation of virulence factors” (Nature Communications, 2021).

Experiments:
XacXyl31 [1] = biological target: T1, XacXyl31 (Xanthomonas citri, UniProt A0AAI8ESN9); assay: mass spectrometry of products; type: biochemical; settings: pH 6.5, 45 °C
T1 construct: gene xylS; recombinant in E. coli (pET28a or pETM11), purified; domains described span residues 38-957

XacXyl31 [2] = biological target: T1, XacXyl31; assay: X-ray crystal structure; type: binding; settings: active site, -1 subsite
XacGalD = biological target: T2, XacGalD (Xanthomonas citri, UniProt A0AAI7ZEX2); assay: X-ray crystal structure; type: binding; settings: active site, completed by D562 of the neighbouring protomer
T2 construct: gene XAC1772; recombinant in E. coli (pET28a or pETM11), purified; homotetramer, site completed by neighbouring protomer

OC[C@H]1OC(O)[C@H](O)[C@@H](O)[C@@H]1O[C@@H]1O[C@H](CO[C@H]2OC[C@@H](O)[C@H](O)[C@H]2O)[C@@H](O[C@@H]2O[C@H](CO[C@H]3OC[C@@H](O)[C@H](O)[C@H]3O)[C@@H](O[C@@H]3O[C@H](CO[C@H]4OC[C@@H](O)[C@H](O)[C@H]4O)[C@@H](O)[C@H](O)[C@H]3O)[C@H](O)[C@H]2O)[C@H](O)[C@H]1O (stereo partly shown) [XXXG]
mass spectrometry of products (XacXyl31 [1]; product GXXG): the products of XacXyl31 using XXXG and XXG as substrates, respectively

OC1OC[C@@H](O)[C@H](O)[C@H]1O (stereo partly shown) [xylose]
X-ray crystal structure (XacXyl31 [2]): 7KNC (XacXyl31 complexed with xylose)

OC[C@H]1OC(O)[C@H](O)[C@@H](O)[C@@H]1O[C@@H]1O[C@H](CO[C@H]2OC[C@@H](O)[C@H](O)[C@H]2O)[C@@H](O[C@@H]2O[C@H](CO[C@H]3OC[C@@H](O)[C@H](O)[C@H]3O)[C@@H](O)[C@H](O)[C@H]2O)[C@H](O)[C@H]1O (stereo partly shown) [XXG]
mass spectrometry of products (XacXyl31 [1]; product GXG): the products of XacXyl31 using XXXG and XXG as substrates, respectively

OC[C@H]1OC(O)[C@H](O)[C@@H](O)[C@H]1O (stereo partly drawn) [D-galactose]
X-ray crystal structure (XacGalD): The crystal structure of XacGalD with D-galactose
